This is one part of the list.
system: PfSIP2 AP2 domain 1 (GST-tagged); assay: gcPBM binding intensity (ln(normalized median fluorescence intensity)); higher = stronger DNA binding
In short: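 The highest Masliner-normalised natural-log median intensity across replicate spots of either probe orientation is reported as binding intensity. GST-tagged P. falciparum DNA-binding domains expressed in E. coli were applied for 1 h to an Agilent 4 × 180k array of primer-extended double-stranded 36-bp intergenic genomic probes plus negative controls, and bound protein was detected with Alexa488 anti-GST antibody and scanned at 488 nm.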

Sequence	gcPBM binding intensity (ln)
AAAATGAAACAAATATGTACACATATAAATATTTCC [XGTACX_site54]	7.05
TTTTATGAAAAATGGCTTATCTGTAAAGAAGTGGAG [CACACA_negctrl_site1586]	7.5
ATAAAGAAAATATGGAGTACATTTATATCCAATATA [XGTACX_site3085]	7.2
ATATTTGTAATTATTAAACACACACTAATTATATAT [CACACA_site8803]	6.99
AAATATATACTACCGATGCACTAAATATAAACACAT [GTGCAC_site9777]	8.08
TTATCATTTGGACACGCACACACACCGAAAAAGAAA [CACACA_site8008]	7.57
TTTTTGTAATTATATTAATATATATATATATATATA [CACACA_negctrl_site198]	8.96
TTTTTTGCTAAAAAGAGTACTAATAAAAAATTTATT [XGTACX_site5235]	7.06
AATAATTTAAGGAATACACACAAGAAAAAAATAAGA [CACACA_site60]	7.16
GAAAACATTAAAAGTTAGATCATAAGAAAAGAATAT [GTGCAC_negctrl_site726]	7
ACATTATATAAAATATGTACATATAAAAAATTCTAT [XGTACX_site1617]	7.08
GTTCATCACATATACACATGCATATTCTAATATGTA [TGCATGCA_site809]	7.33
CATATATGTGATAACACGCACACAAATGTATAGAAT [CACACA_site2594]	6.99
TATTTATTTATTTATGCATGCATGAATAATTTTTAC [TGCATGCA_site31]	7.04
ATTATTTAGAAATGAGCACACAAAAAGAAGAATTTT [CACACA_site7913]	7.03
ACAAGAGAAGTAATTGCACACGTTGTTTCTTTTTCT [CACACA_site35]	6.94
CCACATATACAAAACACACACACAACGTTTTAATAA [CACACA_site1978]	7.24
ATAATAATATAAAATACACACCTATTATTTTTACAA [CACACA_site6069]	6.86
TCACTATAGTAATTTACACACATTTGAAGAAAATGT [CACACA_site7626]	6.98
TAGAATATGTTTAGTTGTACAAAACAAAATGGAATT [XGTACX_site5293]	6.93
CACATAAAAAAATAAACACACATATGTATATATATA [CACACA_site3177]	8.31
ATTTATTTTTTGTGTTCACACATTAGTATCATCTAT [CACACA_site5274]	6.85
ATTTTTCTAAAATACTGTACAAAGGTGCATAAAAAG [XGTACX_site4425]	11.5

Sequence	gcPBM binding intensity (ln)
TCTAATGATATATACACACACATATAGATTTATATA [CACACA_site7044]	6.98
ATATTTATGGAATATACACACATGTATAATTATATA [CACACA_site2033]	6.96
TTTTCTGTTTTCATTACACACCTTACAAGAACAATA [CACACA_site2158]	7.65
TGCTTTTCTTTTTGCACACTTATGCATATATATATA [CACACA_site2583]	9.5
AAATAAGAAAAAGCGCGTACACATAACATTTTTATA [XGTACX_site8807]	7.25
TTTATTCAAGGAATAGTGCATAATAATAAGTATTAT	8.18
TGTATTCTCTTAGTAGTGCATTTGAAGATTATATAA	9.31
ATTTTTTTTTTTTTTTCATGAAATTTTTTTTTTTTT [CACACA_negctrl_site1069]	6.85
TTAAAAAAAAATAAAGGTACACGGAGAAATCCTTTT [XGTACX_site7509]	6.54
ATATATTTATTATTAGGTACACATATATATATATAT [XGTACX_site5045]	9.3
AACCACCACACCATCACACATAAGATTAGACGAGTA [CACACA_site6063]	7.23
TTATATAGAATTAATTTCTTTTTTTTCTTTTTTAAA [CACACA_negctrl_site1308]	6.42
TGTAGTAATGCTTATTGTACATATACATTTCTTACA [XGTACX_site219]	6.92
TTTTTTTTTCGCTTTTGTACACATTTTATAGAACAG [XGTACX_site2416]	7.33
TATTATATATATGGAAGTACAGGTATATCGTTTTTC [XGTACX_site3771]	7.08
TTTTCCCTTAACCTCTGTACATATAATTTTCTTTCC [XGTACX_site4180]	7.27
AAATATTTTTTAATTGTTCACTTGGTGGATCATTAA [CACACA_negctrl_site922]	6.76
TATCCATTATTTAAAAGTACAAAAAACGATTTACAC [XGTACX_site2979]	7.28
AATATCACATTCCACGGTACACACTAAAAGAAAAAT [XGTACX_site7653]	7.17
ATAAATACGATTAATTAGGTTTGTATAAATTAAATT [GTGCAC_negctrl_site635]	6.76
TCATGTAGTAAAAACTGTACAAATTATTTATCATGT [XGTACX_site1727]	6.96
ATAACTTTTGCGCGTACACACATTTATCCTCTTTAT [CACACA_site209]	7.59
TTTTCTTTATTATAATGTACTCACAAATAAATATAA [XGTACX_site7298]	7.19

Sequence	gcPBM binding intensity (ln)
CTATAATAGAAGTGTACACACATATTTATGTCTGTA [CACACA_site7462]	7.15
TTTCATTTTAGAAGTACACACAAAAAATAAAATAAT [CACACA_site2141]	7.82
AAAATTGTGAAAGGGAAGATGATCAAATTGTTAAGG [CACACA_negctrl_site1492]	7.01
GATGGGCAAATTTACTGTACTTTTATAATATTTTTT [XGTACX_site4830]	7.42
TATAATGGTAAAAACACACAAATATGAAGATGTTAA [CACACA_site6479]	6.66
GTACCTATAAATATTACACACATTTTCATTTTTAAC [CACACA_site7022]	7.38
AAAAAAAATTATATTTGTACGCATTAAAAAATCTAA [XGTACX_site1616]	6.99
CTTAAAAACAAAAATGCACACATAATAAGCATATGT [CACACA_site9149]	7.26
ATTAAACTCATTAAGAGTACAGATAACATTAAAGTA [XGTACX_site8697]	6.99
TGAAATTAGATATATACACACATATAGATTTATATG [CACACA_site7619]	6.9
TATTTTTTCTTAAACACACACATATAGATTTATAAC [CACACA_site7354]	7.26
TGTCCTTATTGGCACACACACATATAAGAAATTTAA [CACACA_site5724]	7.23
TTTTTTAAAGCCTGTTCATCATCCTTACCTATCAAC [GTGCAC_negctrl_site452]	6.81
CTAATTCGTATATGCTGTACCTTTTTCTTACGACTA [XGTACX_site4392]	6.93
ATATGGAATGATCATAGTACATAATTTAAAATTTTA [XGTACX_site3568]	6.74
ACCCTATTTATATATACACACACATATATAAATAAA [CACACA_site8980]	7.52
AACATATATAATATTTGTACTTATATACAAAATATG [XGTACX_site7502]	6.84
ATAGGATGTTTGCACTGTACCAAAAAATGAGCTGCA [XGTACX_site2825]	8.09
ATCAGATATATATATTGTACATTTATATATAAATCA [XGTACX_site1960]	7.15
ATTAAAAATTATATTTTATAAAAATTAAAAGAAATA [CACACA_negctrl_site65]	6.98
AAAGTATACAATGACGCATGCATATATATATACATA [TGCATGCA_site429]	6.81
ATTTATTTATCTAGCTATTCACCATTTTCTTTTGTT [CACACA_negctrl_site1259]	6.61
TATATATATATACATACATGCATATATATATATATA [TGCATGCA_site513]	9.32

Sequence	gcPBM binding intensity (ln)
AATACAATAAAAAAAAGTACACATGTATAAAAAATT [XGTACX_site8270]	7.05
TGTTATCAGAAAGCACGTACATATAATTATATATTC [XGTACX_site4188]	7.23
AATATATCTTATTTAACACACACAAAGAAAATAGAA [CACACA_site9242]	7.35
TAGAAAATCAGTTAAACACACACATAAAAAAAAAAA [CACACA_site8933]	6.74
TTCTTATTTGTACTAGTGCAATAGAAAATAAATAAA [GTGCAC_site9731]	8.2
TATATAATATATATATGTACACATTTGCAAACAATG [XGTACX_site6941]	7.42
ATGAATTAATCTAATCGTACAATAAGCATTATTATA [XGTACX_site2571]	6.73
GAATATGTAAAGAAAGGTACACATGAAAATATGTGT [XGTACX_site446]	6.98
TGTACCTACAAAATATGATATATTTTTATAAATTGT [XGTACX_negctrl_site498]	6.89
AAATATACATACATATGTACATATATATATATATAT [XGTACX_site8202]	9.84
ATAGTTAAAAAAAAAAAAAAAAAAAAAAGAGAGAGA [CACACA_negctrl_site1307]	7.19
ACAATAAAGAACAGTATGCACTTTTATGCATGCGTA	8.94
CTTTTTCTTTTCCGGCGTACAGACTTAGTAGTAGAT [XGTACX_site2268]	7.16
TACATGCAAAAAATTCCACACACACCCCCACATATA [CACACA_site8329]	7.79
TAAAATATAGGAAATACATGCATATTAAATATTCCT [TGCATGCA_site1057]	6.91
TACTTCATTCATTTTACACACATATAAACCCTTTTA [CACACA_site3229]	7.08
ACTAATACATAAAAAAGTACAAATATGAGTATTAAC [XGTACX_site7281]	7.12
TATATAGCTAAAAACACACAAATATGTACACATAAA [CACACA_site7665]	6.98
AAAAAAAAAAAAAGTACACACATACAGATAAATATA [CACACA_site5067]	7.62
ATAAATTGATTCAACACACACATATGTAGGAAGTTA [CACACA_site3253]	6.88

Source: the supplement of paper PMC11417369
